Measured values: the supplement of paper PMC4604168 (melanoma cell lines)
The other results are listed elsewhere or left out. Most values come without repeats; read them as rough.

Legend:
Test in all cases: cell count relative to DMSO control; melanoma cells; higher = more viable cells
Settings in all cases: library dose: standard library concentration; 72 h
G361 = test system: G361
IPC-298 = test system: IPC-298
IST-MEL1 = test system: IST-MEL1
LB2518-MEL = test system: LB2518-MEL
LOXIMVI = test system: LOXIMVI
MEL-HO = test system: MEL-HO
MZ2-MEL = test system: MZ2-MEL
MeWo = test system: MeWo
RPMI7951 = test system: RPMI7951
RVH-421 = test system: RVH-421
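Note: cells treated in 1,536-well plates, then fixed and DAPI-stained, with nuclei counted from automated high-throughput microscope images.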

Row | SMILES | cell count (G361) [%] | cell count (IPC-298) [%] | cell count (IST-MEL1) [%] | cell count (LB2518-MEL) [%] | cell count (LOXIMVI) [%] | cell count (MEL-HO) [%] | cell count (MZ2-MEL) [%] | cell count (MeWo) [%] | cell count (RPMI7951) [%] | cell count (RVH-421) [%]
1 | O=C(/C=C/c1cccnc1)NCCCCC1CCN(C(=O)c2ccccc2)CC1 + CN(NC(=O)CC(=O)NN(C)C(=S)c1ccccc1)C(=S)c1ccccc1 [STA4783] (first compound 0.05 µM, partner dose 0.03 µM) | 2.69 | 39.1 | 23.9 | 21.7 | 54.2 | 44.3 | 48.2 | 17.1 | 89.7 | 37.7
2 | CC1(C)CCC(c2ccc(Cl)cc2)=C(CN2CCN(c3ccc(C(=O)NS(=O)(=O)c4ccc(N[C@H](CCN5CCOCC5)CSc5ccccc5)c(S(=O)(=O)C(F)(F)F)c4)cc3)CC2)C1 + O=C(CCCCCCC(=O)Nc1ccccc1)NO [vorinostat] (first compound 2 µM, partner dose 0.4 µM) | 77.4 | 96.3 | 75.7 | 79.9 | 21.8 | 58.7 | 115 | 82.6 | 21.7 | 67.6
3 | O=C(/C=C/c1cccnc1)NCCCCC1CCN(C(=O)c2ccccc2)CC1 + CO[C@@H]1[C@H](N(C)C(=O)c2ccccc2)C[C@H]2O[C@]1(C)n1c3ccccc3c3c4c(c5c6ccccc6n2c5c31)C(=O)NC4 [Midostaurin] (first compound 0.05 µM, partner dose 0.4 µM) | 3.29 | 24.2 | 37.4 | 50.2 | 53.8 | 34.4 | 27.9 | 71.8 | 46.1 | 15.5
4 | Cc1ccc(Nc2nccc(N(C)c3ccc4c(C)n(C)nc4c3)n2)cc1S(N)(=O)=O [Pazopanib] + CC1(C)NC(=O)N(c2ccc([N+](=O)[O-])c(C(F)(F)F)c2)C1=O [nilutamide] (first compound 2 µM, partner dose 5 µM) | 88.2 | 73.6 | 55.2 | 78.9 | 87.2 | 94.3 | 86 | 103 | 109 | 66.9
5 | Cc1ccc(Nc2nccc(N(C)c3ccc4c(C)n(C)nc4c3)n2)cc1S(N)(=O)=O [Pazopanib] + NC(=O)Nc1cc(-c2cccc(F)c2)sc1C(=O)N[C@H]1CCCNC1 [AZD7762] (first compound 2 µM, partner dose 0.1 µM) | 86.2 | 74.9 | 99.2 | 68.4 | 84.8 | 96.7 | 89.4 | 102 | 53.7 | 103
6 | O=C(/C=C/c1cccnc1)NCCCCC1CCN(C(=O)c2ccccc2)CC1 + Cn1nnc2c(C(N)=O)ncn2c1=O [temozolomide] (first compound 0.05 µM, partner dose 10 µM) | 2.97 | 33.2 | 50.8 | 65.2 | 140 | 38.1 | 37 | 103 | 101 | 38.6
7 | O=C(/C=C/c1cccnc1)NCCCCC1CCN(C(=O)c2ccccc2)CC1 + C=C(c1ccc(C(=O)O)cc1)c1cc2c(cc1C)C(C)(C)CCC2(C)C [Bexarotene] (first compound 0.05 µM, partner dose 10 µM) | 6.15 | 28.9 | 64.5 | 74.2 | 89.2 | 33.2 | 37.2 | 112 | 62.6 | 41.3
8 | O=C(/C=C/c1cccnc1)NCCCCC1CCN(C(=O)c2ccccc2)CC1 + COc1cc2c(Oc3ccc4[nH]c(C)cc4c3F)ncnc2cc1OCCCN1CCCC1 [cediranib] (first compound 0.05 µM, partner dose 2 µM) | 2.98 | 29.2 | 54.3 | 70 | 62.7 | 48.8 | 48.3 | 113 | 90.7 | 20.3
9 | O=C(/C=C/c1cccnc1)NCCCCC1CCN(C(=O)c2ccccc2)CC1 + CCN(CC)CCNC(=O)c1c(C)[nH]c(/C=C2\C(=O)Nc3ccc(F)cc32)c1C [sunitinib] (first compound 0.05 µM, partner dose 2 µM) | 2.98 | 18.4 | 55.5 | 40.3 | 135 | 23 | 33 | 61.1 | 91.2 | 30.8
10 | CC1(C)CCC(c2ccc(Cl)cc2)=C(CN2CCN(c3ccc(C(=O)NS(=O)(=O)c4ccc(N[C@H](CCN5CCOCC5)CSc5ccccc5)c(S(=O)(=O)C(F)(F)F)c4)cc3)CC2)C1 + Cn1sc(=O)n(Cc2ccccc2)c1=O [TDZD-8] (first compound 2 µM, partner dose 2 µM) | 61 | 93.9 | 67.9 | 71.1 | 37 | 68 | 77.6 | 82.1 | 13.2 | 48.4
11 | CC1(C)CCC(c2ccc(Cl)cc2)=C(CN2CCN(c3ccc(C(=O)NS(=O)(=O)c4ccc(N[C@H](CCN5CCOCC5)CSc5ccccc5)c(S(=O)(=O)C(F)(F)F)c4)cc3)CC2)C1 + O=C(Nc1ccccc1)c1cc([N+](=O)[O-])ccc1Cl [GW9662] (first compound 2 µM, partner dose 10 µM) | 54.6 | 88.5 | 70 | 45.3 | 50.7 | 51 | 70.1 | 63.5 | 36.9 | 50.4
12 | CC1(C)CCC(c2ccc(Cl)cc2)=C(CN2CCN(c3ccc(C(=O)NS(=O)(=O)c4ccc(N[C@H](CCN5CCOCC5)CSc5ccccc5)c(S(=O)(=O)C(F)(F)F)c4)cc3)CC2)C1 + CN(NC(=O)CC(=O)NN(C)C(=S)c1ccccc1)C(=S)c1ccccc1 [STA4783] (first compound 2 µM, partner dose 0.03 µM) | 21.6 | 69.4 | 5.2 | 10.1 | 20.4 | 48.2 | 100 | 16.7 | 26.2 | 14.2
13 | CC1(C)CCC(c2ccc(Cl)cc2)=C(CN2CCN(c3ccc(C(=O)NS(=O)(=O)c4ccc(N[C@H](CCN5CCOCC5)CSc5ccccc5)c(S(=O)(=O)C(F)(F)F)c4)cc3)CC2)C1 + CO[C@H]1C[C@@H]2CC[C@@H](C)[C@@](O)(O2)C(=O)C(=O)N2CCCC[C@H]2C(=O)O[C@H]([C@H](C)C[C@@H]2CC[C@@H](OCCO)[C@H](OC)C2)CC(=O)[C@H](C)/C=C(\C)[C@@H](O)[C@@H](OC)C(=O)[C@H](C)C[C@H](C)/C=C/C=C/C=C/1C [everolimus] (first compound 2 µM, partner dose 0.1 µM) | 36.8 | 65.1 | 49.5 | 45.2 | 23.9 | 33.7 | 55.9 | 64.6 | 49.1 | 33.8
14 | CC1(C)CCC(c2ccc(Cl)cc2)=C(CN2CCN(c3ccc(C(=O)NS(=O)(=O)c4ccc(N[C@H](CCN5CCOCC5)CSc5ccccc5)c(S(=O)(=O)C(F)(F)F)c4)cc3)CC2)C1 + c1cc(-c2cnn3cc(-c4ccc(OCCN5CCCCC5)cc4)cnc23)ccn1 [Dorsomorphin] (first compound 2 µM, partner dose 2 µM) | 45.6 | 93.9 | 68.6 | 58.5 | 72.4 | 68.4 | 74.8 | 63.8 | 19.4 | 51.5
15 | CC1(C)CCC(c2ccc(Cl)cc2)=C(CN2CCN(c3ccc(C(=O)NS(=O)(=O)c4ccc(N[C@H](CCN5CCOCC5)CSc5ccccc5)c(S(=O)(=O)C(F)(F)F)c4)cc3)CC2)C1 + O=S(=O)(c1ccccc1)N(CC(F)(F)F)c1ccc(C(O)(C(F)(F)F)C(F)(F)F)cc1 [T0901317] (first compound 2 µM, partner dose 7 µM) | 37.1 | 83.9 | 66.7 | 75.7 | 54 | 49.3 | 92.4 | 69.3 | 22.3 | 42.4
16 | CC1(C)CCC(c2ccc(Cl)cc2)=C(CN2CCN(c3ccc(C(=O)NS(=O)(=O)c4ccc(N[C@H](CCN5CCOCC5)CSc5ccccc5)c(S(=O)(=O)C(F)(F)F)c4)cc3)CC2)C1 + O=C(O)c1ccc2c(c1)nc(Nc1cccc(Cl)c1)c1ccncc12 [CX4945] (first compound 2 µM, partner dose 2 µM) | 33.2 | 63.5 | 47.4 | 69.7 | 26.3 | 25.7 | 39.4 | 69.8 | 18.7 | 6.6
17 | Cc1ccc(Nc2nccc(N(C)c3ccc4c(C)n(C)nc4c3)n2)cc1S(N)(=O)=O [Pazopanib] + CCc1ccc(CCOc2ccc(CC3SC(=O)NC3=O)cc2)nc1 [pioglitazone] (first compound 2 µM, partner dose 10 µM) | 80.6 | 78.8 | 101 | 83 | 96.5 | 105 | 72.7 | 82.7 | 85 | 108
18 | CC1(C)CCC(c2ccc(Cl)cc2)=C(CN2CCN(c3ccc(C(=O)NS(=O)(=O)c4ccc(N[C@H](CCN5CCOCC5)CSc5ccccc5)c(S(=O)(=O)C(F)(F)F)c4)cc3)CC2)C1 + COc1ccc(C2=N[C@@H](c3ccc(Cl)cc3)[C@@H](c3ccc(Cl)cc3)N2C(=O)N2CCNC(=O)C2)c(OC(C)C)c1 [Nutlin-3] (first compound 2 µM, partner dose 0.5 µM) | 58 | 85 | 68.9 | 50.3 | 37 | 67.1 | 59.3 | 94.9 | 44.9 | 42.8
19 | O=C(/C=C/c1cccnc1)NCCCCC1CCN(C(=O)c2ccccc2)CC1 + Cc1cc(N2CCOCC2)cc2[nH]c(-c3c(NC[C@@H](O)c4cccc(Cl)c4)cc[nH]c3=O)nc12 [BMS536924] (first compound 0.05 µM, partner dose 1 µM) | 1.03 | 26.7 | 57.5 | 54.5 | 60.5 | 32.6 | 42.4 | 72.5 | 93.3 | 16.5
20 | CC1(C)CCC(c2ccc(Cl)cc2)=C(CN2CCN(c3ccc(C(=O)NS(=O)(=O)c4ccc(N[C@H](CCN5CCOCC5)CSc5ccccc5)c(S(=O)(=O)C(F)(F)F)c4)cc3)CC2)C1 + CN1CCN(c2ccc3nc(-c4c(N)c5c(F)cccc5[nH]c4=O)[nH]c3c2)CC1 [Dovitinib] (first compound 2 µM, partner dose 0.5 µM) | 38.4 | 52.7 | 44.1 | 13.8 | 33.2 | 42.2 | 6.19 | 36.1 | 21.4 | 46.5
21 | O=C(/C=C/c1cccnc1)NCCCCC1CCN(C(=O)c2ccccc2)CC1 + Cc1nc(Nc2ncc(C(=O)Nc3c(C)cccc3Cl)s2)cc(N2CCN(CCO)CC2)n1 [dasatanib] (first compound 0.05 µM, partner dose 0.02 µM) | 3.25 | 3.27 | 48 | 41.9 | 14.4 | 17 | 7.33 | 75.7 | 53.7 | 5.35
